PubChem BioAssay AID1030 (National Center for Advancing Translational Sciences (NCATS), 2008)
Hit rate of the full screen: of about 220,000 compounds, about 16,000 (7.3%) were called active. This list was built around the results that the source calls inconclusive (neither active nor inactive); the mix of calls is not that of the screen. Calls follow the shape of the dose curve; as a rule, active = well fitted inhibition curve with a large enough effect (not every such curve was filed as active); inconclusive = small, poorly fitted or top-dose-only effect, or another doubt; inactive = no such curve, though single readings can be large or run the other way. A potency beside an inconclusive call is a rough fit, not a confirmed value.

These compounds were tested against Aldehyde dehydrogenase 1A1 (Homo sapiens) (UniProt P00352) (assay: qHTS Assay for Inhibitors of Aldehyde Dehydrogenase 1 (ALDH1A1)). Conditions: Purified ALDH1A1, NADH fluorescence, propionaldehyde substrate; series mostly up to 75.3 µM; activity, negative = inhibition: at the top concentration.
UniProt P00352, sequence (P00352 whole entry, looked up): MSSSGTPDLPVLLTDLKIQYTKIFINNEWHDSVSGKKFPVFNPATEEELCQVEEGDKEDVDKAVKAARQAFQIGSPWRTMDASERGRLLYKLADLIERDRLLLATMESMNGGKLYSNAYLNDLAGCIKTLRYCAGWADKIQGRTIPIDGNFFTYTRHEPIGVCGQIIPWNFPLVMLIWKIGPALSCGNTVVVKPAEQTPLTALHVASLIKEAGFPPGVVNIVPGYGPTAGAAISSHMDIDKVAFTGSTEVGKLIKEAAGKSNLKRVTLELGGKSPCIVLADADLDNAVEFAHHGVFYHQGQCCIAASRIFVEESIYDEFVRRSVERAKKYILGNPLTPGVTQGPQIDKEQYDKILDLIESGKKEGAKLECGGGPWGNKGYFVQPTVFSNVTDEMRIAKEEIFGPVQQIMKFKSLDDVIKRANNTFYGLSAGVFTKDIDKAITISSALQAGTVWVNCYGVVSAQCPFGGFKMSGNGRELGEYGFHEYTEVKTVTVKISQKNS

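For activity, negative = inhibition in this document: plate controls were no enzyme wells and a reference inhibitor.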
Potency is read from the fitted curve at half-maximal effect; tags tell the direction and shape of the fitted curve.

Potency, active:
CC(C)CC(=O)NNC(=S)Nc1ccc(S(N)(=O)=O)cc1 11.2 µM
Cc1ccc2ncccc2c1NS(=O)(=O)c1ccccc1 31.6 µM
CCCCCCn1cnc2c(c1=O)c1nc3ccccc3nc1n2/N=C/c1ccco1 25.1 µM
c1ccc(CCN(Cc2ccccc2)C2CCN(C3CCCC3)CC2)cc1 39.8 µM
CC/C=C\C/C=C\C/C=C\C/C=C\C/C=C\C/C=C\CCC(=O)O 22.4 µM
CCCOc1ccc(C(=O)CCNc2ccc(C)c(Cl)c2)cc1 17.8 µM
Cc1nnn(C23CC4CC(CC(C(=O)NN)(C4)C2)C3)n1 1.41 µM
O=C(CCl)NC(=O)NC12CC3CC(CC(C3)C1)C2 7.94 µM
S=C(N=Nc1ccccc1)NNc1ccccc1 11.2 µM
Cc1ccc(Nc2nc(N)nc(CN3CCN(C(=O)c4ccco4)CC3)n2)cc1Cl 7.94 µM
COc1ccc(N=NC2=C(O)CC(C)(C)CC2=O)cc1 0.891 µM
CCCC(=O)NC(=S)Nc1sc2c(c1C(N)=O)CCC2 8.91 µM
CC(C)CN1C(=O)/C(=C/c2cccs2)NC1=S 2 µM
CN1CC(c2ccccc2Cl)C2(COc3ccccc3C2=O)C12C(=O)Nc1ccccc12 (configuration not stated) 1.41 µM
O=C(/C=C/c1ccc(Br)o1)NCc1ccccc1 6.31 µM

Potency, inconclusive:
O=C1C2C3C=CC(C3=C(c3ccccc3)c3ccccc3)C2C(=O)N1CCO (configuration not stated) 14.1 µM [inhibitor, partial curve]
COc1cccc(/C=C/C(=O)Nc2ccc3[nH]c(=O)[nH]c3c2)c1 39.8 µM [inhibitor, single point]
N#Cc1cc(-c2ccc(Cl)cc2)cn(Cc2c(Cl)cccc2Cl)c1=O 25.1 µM [inhibitor, partial curve]
Cc1ccccc1CN1C[C@@H]2C[C@@H](c3cnc(N4CCOCC4)s3)N3CCC[C@@]23C1=O 39.8 µM [inhibitor, single point]
O=C(/C=C/c1ccccc1)Nc1nnc(-c2ccco2)o1 39.8 µM [inhibitor, single point]
CCOC(=O)c1ccc(N2C(=O)CC(N3CCN(C(=O)c4ccco4)CC3)C2=O)cc1 (configuration not stated) 39.8 µM [inhibitor, single point]
O=C(CSc1ncccc1C(=O)O)c1ccc2ccccc2c1 39.8 µM [inhibitor, single point]
CCOc1ccc([N+](=O)[O-])c(N)c1 39.8 µM [inhibitor, single point]
O=C(CSc1nc2ccccc2c(=O)n1CCCN1CCOCC1)NC12CC3CC(CC(C3)C1)C2 28.2 µM [inhibitor, single point]
CCc1ccc(OCC(=O)NCc2ccco2)c(Br)c1 35.5 µM [inhibitor, single point]
CC(CNCc1ccc2c(c1)OCO2)NCc1ccc2c(c1)OCO2 (configuration not stated) 20 µM [inhibitor, single point]
Cc1ccc(-c2nnc(-c3ccc(NC(=O)c4ccco4)cc3)o2)cc1 6.31 µM [inhibitor, single point]
COc1cc2c(=O)c(-c3ccc(O)cc3)coc2cc1OC1OC(CO)C(O)C(O)C1O (configuration not stated) 31.6 µM [inhibitor, single point]
CCOc1cc2[nH]c(=S)n(Cc3ccc(C)o3)c(=O)c2cc1OCC 25.1 µM [inhibitor, single point]
CCCCN(C)Cc1c(O)ccc2c(-c3ccccc3)cc(=O)oc12 31.6 µM [inhibitor, single point]
COc1ccccc1CN(C(=O)c1ccco1)C(C(=O)NC1CCCC1)c1ccncc1 (configuration not stated) 25.1 µM [inhibitor, single point]
COc1ccc(SCCc2ccncc2)cc1 39.8 µM [inhibitor, single point]
COc1cccc(C2C(C(=O)c3cccs3)=C(O)C(=O)N2CCN(C)C)c1OC (configuration not stated) 39.8 µM [inhibitor, single point]
CCCCC12CN3CCN(CC(C3)/C1=N\NC(=O)c1ccccc1N)C2 28.2 µM [inhibitor, partial curve]
Cc1ccc(OCCOCCN2CCCCC2)c([N+](=O)[O-])c1 39.8 µM [inhibitor, single point]
COc1ccc(-c2nc(CS(=O)CC(=O)N3CCCC3)c(C)o2)cc1 (configuration not stated) 35.5 µM [inhibitor, single point]
COc1ccc(C(c2sc3nc(C)nn3c2O)N2CCc3ccccc3C2)cc1 (configuration not stated) 25.1 µM [inhibitor, single point]
COCCN=C1NN=C(c2ccc(NC(C)=O)cc2)CS1 28.2 µM [inhibitor, single point]
CCOC(=O)Cc1csc(NC(=O)c2c(O)c3ccccc3n(C)c2=O)n1 39.8 µM [inhibitor, single point]
Cc1ccc(OCc2nc(-c3cccs3)no2)c([N+](=O)[O-])c1 39.8 µM [inhibitor, single point]
O=c1[nH]c(Cc2ccccn2)nc2scc(-c3ccccc3Cl)c12 22.4 µM [inhibitor, single point]
NC(=O)c1sc2nc(-c3ccccc3)c3c(c2c1N)CCCC3 25.1 µM [inhibitor, partial curve]
Cc1c(NC(=O)c2ccc(N3CCCC3)c([N+](=O)[O-])c2)cccc1-c1nc2ccccc2s1 31.6 µM [inhibitor, partial curve, poor fit]
COc1cc2c(cc1O)CCN(C(=O)c1ccco1)C2C (configuration not stated) 35.5 µM [inhibitor, single point]
COc1ccc(-c2cc3ccccc3c(=O)o2)cc1 31.6 µM [inhibitor, partial curve]
CCC1c2ccc(C)n2CCN1C(=O)Nc1ccccc1OC (configuration not stated) 28.2 µM [inhibitor, single point]
CC(C)OC(=O)CSc1nc(Cc2cccs2)nc2ccccc12 39.8 µM [inhibitor, single point]
CCOC(=O)c1c(NC(C)=O)sc2c(O)c(Br)cc(Br)c12 44.7 µM [inhibitor, single point]
Cc1ccccc1NC(=O)Cn1nnc(-c2ccc(N3CCOCC3)cc2)n1 39.8 µM [inhibitor, single point]
Cc1ccc(-c2nnc(SCC(=O)N/N=C/c3ccccc3C(=O)O)n2-c2ccccc2)cc1 39.8 µM [inhibitor, single point]
COc1cccc(C=Nc2ccccc2C(=O)Nc2ccccc2)c1O 25.1 µM [inhibitor, partial curve]
N#Cc1ccccc1S(=O)(=O)N1CCN(c2cnccn2)CC1 44.7 µM [inhibitor, single point]
COC(=O)CSCC(=O)Nc1cc2c(cc1C(C)=O)OCO2 31.6 µM [inhibitor, partial curve]
CC(=O)/C(=N\Nc1ccc(C)cc1)N1CCOCC1 39.8 µM [inhibitor, single point]
O=C(CC1C(=O)NCCN1Cc1ccc(F)cc1)NCCN1CCCc2ccccc21 (configuration not stated) 31.6 µM [inhibitor, single point]
Cc1ccc(C)c(NS(=O)(=O)c2cc(C(=O)Nc3ccccc3-c3ccccc3)ccc2Cl)c1 25.1 µM [inhibitor, single point]

activity, negative = inhibition, inactive:
O=C(c1cc2ccccc2o1)c1cccs1 -8.73%
FC(F)Sc1nnc(-c2cccs2)n1-c1ccccc1 26.3%
O=C(CCc1nc2ccccc2s1)c1ccccc1 -3.94%
COc1ccc(CN2C3CCCC2CC(NC(=O)Nc2ccccc2)C3)cc1 (configuration not stated) -1.89%
COc1ccc(S(=O)(=O)NC(C)C(=O)O)cc1 (configuration not stated) 5.57%
Cc1ccc(NC(=O)C(=O)NCc2ccccn2)cc1 0.486%
O=C(Nc1ccc(N2CCOCC2)cc1)c1cnsn1 3.1%
O=C(Nc1ccccc1)N1CCN(Cc2ccc(Cl)cc2)CC1 -2.86%
COc1cc(C2C3C(C)N(C)C(=O)N(C)C3N(C)C(=O)N2C)ccc1O (configuration not stated) 11.1%
Cc1cc(C(F)(F)F)nn1CC(=O)N1CCCCC1C (configuration not stated) 3.48%
Fc1ccc(CSc2ccc3nnc(-c4ccccn4)n3n2)cc1 -4.33%
O=S(=O)(c1cccc(C(F)(F)F)c1)N1c2ccccc2-n2cccc2[C@H]1c1cccnc1 -4.45% [at 13.5 µM]
COc1ccc(C)c(S(=O)(=O)Nc2ccc(OCC(=O)O)cc2)c1 11.8%
Nc1ncnc(N2CCc3ccccc32)c1[N+](=O)[O-] -8.04%
N/C(=N\OC(=O)CCc1ccccc1)c1ccc(Br)cc1 -3.83%
COc1ccc(C(C(=O)NC2CCCC2)N(CCN2CCOCC2)C(=O)c2ccc(OC)c(OC)c2)cc1 (configuration not stated) 5.21%
COc1ccc(CCNC(=O)/C=C\c2ccccc2)cc1OC -6.05%
Cc1cc(NC(=O)c2cc(S(=O)(=O)N3CCCCC3)ccc2C)n(-c2ccccn2)n1 -1.93%
CCc1nnnn1-c1ccc([N+](=O)[O-])cc1C -2.61%
COC(=O)N/N=C(\C)c1ccccc1Br -5.96%
CC1(C)Cc2c(C#N)c(SCC(=O)c3ccccc3)nc(N3CCOCC3)c2CO1 -40.5%
